Results: PubChem BioAssay AID902 (National Center for Advancing Translational Sciences (NCATS), 2007)
Screen size: about 130,000 compounds; about 1,900 (1.5%) were called active. Inconclusive means that the source gave no clear call. Such entries were picked first, then a sample of the others. The call rests on the fitted dose curve; in most records, active means well fitted cell-killing curve with a large enough effect; inconclusive means small, poorly fitted or top-dose-only effect; inactive means no such curve, though single readings can be large or run the other way. Potencies of inconclusive entries are doubtful fits and often do not repeat.
On the % scale 0 is the no-effect control and ±100 the full control effect; potency means the concentration at half of the fitted maximal effect; tags describe the fitted curve by direction and shape.

Assay: qHTS Screen for Compounds that Selectively Target Cancer Cells with p53 Mutations: Cytotoxicity of p53ts Cells at the Nonpermissive Temperature; further: nearly all actives have a fitted effect of over 55% in size
Conditions: H1299-p53A138V viability at 39C, ATP luminescence, 24 h; activity change, negative = cell killing: at 46.1 µM (top of the series)
For `CN1CCc2c(sc(/N=C/c3ccco3)c2C(N)=O)C1`, the “activity change, negative = cell killing” value was inactive: -21.9%.
In the case of `COc1ccc(CNS(=O)(=O)c2cc3c(cc2Cl)N(C(C)=O)CCO3)cc1`, the Potency is reported as inconclusive: 5.62 µM [cytotoxic, single point].
For `COc1ccc(NC(=O)CSc2nc(-c3cc(OC)c(OC)c(OC)c3)[nH]c2-c2ccc(F)cc2)cc1`, the Potency was inconclusive: 31.6 µM [cytotoxic, single point].
In the case of `CCSCCOC(=O)C1=C(C)N(C)C(=O)NC1c1cc(OC)ccc1OC` (stereo not given), the “activity change, negative = cell killing” value is reported as inactive: 2.31%.
With `O=C(N/N=C/c1c[nH]c2ccccc12)c1sc2ccccc2c1Cl` the Potency was inconclusive: 35.5 µM [cytotoxic, single point].
In the case of `O=c1c2cc3c(cc2nc2sc(Nc4ccccc4)nn12)OCO3`, the Potency is reported as active: 15.8 µM.
For `Cc1ccc(C2=N/C(=C/N3CCOCC3)C(=O)O2)cc1`, the Potency was inconclusive: 12.6 µM [cytotoxic, partial curve].
In the case of `CCN(c1ccccc1)S(=O)(=O)c1nnc(NC(=O)c2ccccc2OC)s1`, the Potency is reported as inconclusive: 3.16 µM [cytotoxic, full curve, poor fit].
For `Cc1oc2ncn(C)c(=O)c2c1C(=O)N1CCN(c2cccc(C(F)(F)F)c2)CC1`, the “activity change, negative = cell killing” value was inactive: 0.799%.
With `Cc1oc(-c2cccc(Cl)c2)nc1CN1CCC(C(=O)NC(C)c2ccccc2)CC1` (stereo not given) the “activity change, negative = cell killing” value was inactive: -6.32%.
With `CCOc1ccc(CN2C(=O)c3ccccc3Sc3ccc(C(=O)NCc4ccco4)cc32)cc1` the “activity change, negative = cell killing” value was inactive: 5.46%.
With `COc1ccc(-c2cc(C(F)(F)F)nc(SCCC(=O)Nc3ccc(NC(C)=O)cc3)n2)cc1` the Potency was inconclusive: 10 µM [cytotoxic, partial curve].
With `Cn1c(NC(=O)c2cc(-c3ccc4c(c3)OCO4)nc3ccccc23)cc(=O)n(C)c1=O` the Potency was active: 12.6 µM.
With `CC(C)Cc1cc(-c2ccco2)c(C#N)c(N)n1` the “activity change, negative = cell killing” value was inactive: -2.04%.
With `COc1cccc(NC(=O)CSc2nnc(-c3cccc(OC)c3)o2)c1` the Potency was active: 10 µM.
With `CSc1ccc(C2C(C(=O)Nc3ccccc3)=C(C)Nc3nc4ccccc4n32)cc1` (stereo not given) the Potency was inconclusive: 12.6 µM [cytotoxic, single point].
For `C=C(C)COc1ccc(-c2ncncc2Oc2ccc(OC)cc2)c(O)c1`, the “activity change, negative = cell killing” value was inactive: -0.463%.
For `Cc1cc(C)c(NC(=O)CN2C(=O)c3cccnc3Sc3ccccc32)c(C)c1`, the Potency was inconclusive: 0.01 µM [cytotoxic, full curve, poor fit].
In the case of `Cc1ccc2sc(-c3ccc(N)cc3)nc2c1`, the Potency is reported as active: 3.16 µM.
In the case of `O=S(=O)(c1ccc(F)cc1)N(CC(O)Cn1c2ccccc2c2ccccc21)c1ccccc1` (stereo not given), the Potency is reported as inconclusive: 12.6 µM [cytotoxic, single point].
For `Cc1ccc(-n2nc3c(n2)/C(=N/O)CC/C3=N\O)cc1`, the Potency was inconclusive: 11.2 µM [cytotoxic, single point].
For `COc1ccc(OC)c(NC(=O)c2cccc3c2C(=O)N(C2CCCCC2)C3)c1`, the “activity change, negative = cell killing” value was inactive: 15.4%.
With `C=CCc1cccc2cc(-c3nc4ccc(C(=O)O)cc4[nH]3)c(=O)oc12` the Potency was inconclusive: 10 µM [cytotoxic, partial curve].
For `O=C(Nc1ccccc1Br)c1cc(S(=O)(=O)NC2CCCCC2)ccc1F`, the “activity change, negative = cell killing” value was inactive: -10.8%.
With `Cc1ccc2nc(-c3ccc(NC(=O)COc4ccccc4C(C)(C)C)cc3)sc2c1` the Potency was inconclusive: 25.1 µM [cytotoxic, single point].
For `C[N+](C)(C)CCC(=O)c1cccc2ccccc12`, the Potency was active: 15.8 µM.
For `Cc1cnc(NC(=O)COc2ccccc2)s1`, the Potency was inconclusive: 15.8 µM [cytotoxic, partial curve].
In the case of `N#Cc1cc2c(nc1SCC(=O)Nc1nccs1)CCCCC2`, the Potency is reported as inconclusive: 12.6 µM [cytotoxic, partial curve].
With `Cc1nc2ccc(S(=O)(=O)NC(CC(C)C)C(=O)NCc3ccc(Cl)cc3)cc2s1` (stereo not given) the “activity change, negative = cell killing” value was inactive: -12.2%.
For `CCN1CCN(c2cc(C)c3cc(NC(=O)/C=C/c4cccc(OC)c4OC)ccc3n2)CC1`, the Potency was inconclusive: 3.16 µM [cytotoxic, single point].
With `Cc1ccc(C)c(Cn2c(=O)n(CCCC(=O)NCCc3ccc(Cl)cc3)c(=O)c3ccccc32)c1` the Potency was inconclusive: 12.6 µM [cytotoxic, partial curve].
In the case of `O=C(Cn1c(=O)n(Cc2ccccc2)c(=O)c2sc3ccccc3c21)Nc1ccc(F)cc1`, the Potency is reported as active: 10 µM.
In the case of `CC(C)c1ccc(NC(=O)c2cnc3sc(N4CCCC4)nn3c2=O)cc1`, the “activity change, negative = cell killing” value is reported as inactive: -23.4%.
In the case of `COc1ccc(C(=O)Nc2nnc(S(=O)(=O)N(C)c3ccc(C)cc3)s2)cc1`, the “activity change, negative = cell killing” value is reported as inactive: 3.11%.
For `CCCC[C@@H]1CN2[C@H](c3ccc(Br)cc3)[C@@H](C)CC[C@H]2C(=O)O1`, the activity change, negative = cell killing was inactive: 7.24% [at 9.22 µM].
With `CC(C)COc1ccc(C(=O)Nc2nnc(S(=O)(=O)N(C)Cc3ccco3)s2)cc1` the Potency was active: 10 µM.
In the case of `CCc1cccc(NC(c2ccccc2)c2nnc(-c3ccccc3F)o2)c1` (stereo not given), the “activity change, negative = cell killing” value is reported as inactive: -16.8%.
In the case of `COC(=O)[C@@H]1C[C@H]1[C@@H](NS(=O)(=O)c1ccc(-c2ccccc2)cc1)c1ccccc1`, the “activity change, negative = cell killing” value is reported as inactive: 12.2%.
In the case of `O=C(NCc1ccco1)c1cc2cc3ccc(Cl)cc3nc2o1`, the “activity change, negative = cell killing” value is reported as inactive: -15.5%.
In the case of `CCCN1CCN(CCCNC(=O)C2CCCN(c3nc4ccc(OCC)cc4s3)C2)CC1` (stereo not given), the Potency is reported as inconclusive: 7.94 µM [cytotoxic, partial curve].
In the case of `CC(C)=CCC/C(C)=C/CO/N=C1/C[C@@H](O)[C@@H](O)[C@@H]2[C@@H]3C(=O)N(Cc4ccc5c(c4)OCO5)C(=O)[C@H]3CC[C@@H]12`, the activity change, negative = cell killing is reported as inactive: 13.3% [at 9.22 µM].
For `O=S(=O)(c1ccc(-c2csc(=Nc3ccc(F)cc3)n2CCCCCCO)cc1)N1CCCC1`, the Potency was inconclusive: 11.2 µM [cytotoxic, single point].
For `Cc1ccc(Cl)cc1N1CCN(S(=O)(=O)c2ccc3c(c2)C(C(C)C)C(=O)N3)CC1` (stereo not given), the Potency was inconclusive: 31.6 µM [cytotoxic, single point].
With `CCOc1ccc(Nc2nc(C)c(NC(=O)c3cccc(F)c3)c(Nc3ccc(OCC)cc3)n2)cc1` the Potency was inconclusive: 12.6 µM [cytotoxic, partial curve].
For `COc1cccc(-c2oc3ccc(C)cc3c(=O)c2O)c1`, the Potency was active: 10 µM.
In the case of `CCC1Oc2ccc(C)cc2N(CC(=O)N2CCN(c3ccccc3OC)CC2)C1=O` (stereo not given), the “activity change, negative = cell killing” value is reported as inactive: -26.9%.
With `Cc1nc(C)c(-c2ccc(SCC(=O)Nc3cccc(C)c3C)nn2)s1` the Potency was inconclusive: 0.0251 µM [cytotoxic, full curve, poor fit].
With `Cn1c(C(=O)NCCc2ccccc2)cc2sc(Cl)cc21` the Potency was active: 12.6 µM.
For `O=C(Nc1cccc(NC(=O)c2cccs2)c1)c1ccco1`, the “activity change, negative = cell killing” value was inactive: -1.15%.
With `COC(=O)Cc1c(C)nc2nc(-c3ccc(C)cc3)[nH]n2c1=O` the Potency was inconclusive: 20 µM [cytotoxic, partial curve, poor fit].
In the case of `CCOC(=O)Cc1c(C)nc2c(-c3cccc(Br)c3)c[nH]n2c1=O`, the Potency is reported as active: 12.6 µM.
For `CC(C)Cn1cc(C(=O)NCC2CCCO2)c2c3ccccc3n(C)c2c1=O` (stereo not given), the “activity change, negative = cell killing” value was inactive: -8.97%.
For `Clc1ccc(-c2nc3n(n2)Cc2ccccc2-3)cc1`, the Potency was inconclusive: 31.6 µM [cytotoxic, partial curve, poor fit].
For `COc1ccc(NC(=O)Cn2c(=O)n(-c3ccc(OC)cc3)c(=O)c3ccc(C(=O)NCc4ccc(C)cc4)cc32)cc1`, the Potency was inconclusive: 12.6 µM [cytotoxic, single point].
For `Cc1ccc(Cl)cc1NC(=O)CN1C(=O)COc2ccc(S(=O)(=O)N3CCCCCC3)cc21`, the Potency was inconclusive: 0.005 µM [cytotoxic, full curve, poor fit].
For `CCCCN(C)CCCNC(=O)c1cc(-c2cccnc2)nc2ccccc12`, the Potency was inconclusive: 15.8 µM [cytotoxic, single point].
For `Cc1ccccc1-c1ccc2ncnc(NCc3cccnc3)c2c1`, the Potency was inconclusive: 31.6 µM [cytotoxic, single point].
With `CCOC(=O)C1CCCN(C(=O)Cn2ncn3c(cc4sc(CC)cc43)c2=O)C1` (stereo not given) the Potency was inconclusive: 3.98 µM [cytotoxic, partial curve, poor fit].
For `CN(Cc1cc(C(C)(C)C)cc(Br)c1O)Cc1cc(C(C)(C)C)cc(Br)c1O`, the activity change, negative = cell killing was inactive: -29.2% [at 9.22 µM].
In the case of `CCOc1ccc(CCNC(=O)c2ccc(-c3nc(COc4ccc(C)cc4)c(C)o3)cc2)cc1`, the “activity change, negative = cell killing” value is reported as inactive: -3.75%.
In the case of `Cc1cccc(C)c1OCC(=O)Nc1c(C(=O)c2ccc(Br)cc2)oc2ccccc12`, the “activity change, negative = cell killing” value is reported as inactive: 2.61%.
In the case of `O=C(CN1CCN(C2CCCCC2)CC1)Nc1ccccc1N1CCCCC1`, the Potency is reported as active: 15.8 µM.
For `COC(=O)c1cc2occc2n1Cc1nc(-c2cccc(Cl)c2)oc1C`, the Potency was inconclusive: 1 µM [cytotoxic, full curve, poor fit].
With `CCCc1cc(=O)[nH]c(SCC(=O)c2ccc(S(=O)(=O)N3CCCC3)cc2)n1` the Potency was inconclusive: 31.6 µM [cytotoxic, single point].
In the case of `Cc1noc(C)c1COC(=O)CCN1c2ccccc2Sc2ccccc21`, the “activity change, negative = cell killing” value is reported as inactive: -14.5%.
With `CCC1=C2CC[C@H]3C(=O)N(c4ccccc4)C(=O)[C@H]3[C@H]2[C@@]2(Cc3ccccc3)C(=NCc3ccccc3)OC(=O)N2C1=O` the “activity change, negative = cell killing” value was inactive: 0.283%.
For `COc1ccc(-c2nsc(NC(=O)C(C)Oc3ccc(Cl)c(C)c3)n2)cc1` (stereo not given), the Potency was inconclusive: 6.31 µM [cytotoxic, partial curve].
With `Cc1cccc(C(=O)Nc2c(C(=O)NCc3ccc(Cl)cc3)sc3nc(C)cc(C)c23)c1` the Potency was inconclusive: 10 µM [cytotoxic, single point].
For `CCCN(CCC)CCNC(=O)c1ccc2c(c1)NC(=O)C(CS(=O)(=O)Cc1cccc(Br)c1)N2` (stereo not given), the Potency was inconclusive: 20 µM [cytotoxic, partial curve].
For `COCCn1c(=O)c(-c2ccc(Cl)cc2)nc2cnc(N(C)C)nc21`, the “activity change, negative = cell killing” value was inactive: 5.45%.
